Assay results reported in PubChem BioAssay AID463173 (ICCB-Longwood Screening Facility, Harvard Medical School, 2010).
Among all 52,000 compounds or so, about 4,300 (8.3%) were called active. No stated cut-off is given here; in the data, active means survival mostly below about 52% (no sharp cut-off); inactive means mostly above about 56%. This is one part of the list.

These compounds were tested on DeltatarO mutant (assay: growth inhibition of S. aureus wild type versus tarO mutant, primary screen, teichoic acid synthesis inhibitors, RN4220, OD600 (AID 463173)). Details: OD600, 18 h, hits give low values, screened at 18.75 µg/mL (by protocol).

SMILES	survival
Cc1cccc(Cn2c(COc3ccccc3)nc3ccccc32)c1	active: -2%
CCCCCn1c(=O)[nH]c2cc(C(=O)NC(C)CC)ccc2c1=O (stereo unspecified)	inactive: 71%
COc1ccc(CCNC(=O)c2cc(=O)c3ccc(C)cc3o2)cc1OC	inactive: 62%
COCCn1c(=O)[nH]c2cc(C(=O)Nc3ccc(OC)cc3)ccc2c1=O	inactive: 138%
CCOc1ccc(CNC(=O)c2ccc3c(c2)nc2n3CCCCC2)cc1	inactive: 84%
CCOC(=O)CNC(=O)c1cc2c(=O)n3cccc(C)c3nc2n1C	inactive: 102%
CCc1nn2c(=O)c(S(=O)(=O)Nc3ccc(C)c(C)c3)c(C)nc2s1	inactive: 66%
O=C1OC2(CCCC2)OC(=O)C1=Cc1ccc(N2CCOCC2)o1	inactive: 66%
O=C(/C=C/c1ccccc1)Nc1nc2n(n1)C(c1ccc(F)cc1)C=C(c1ccccc1)N2 (stereo unspecified)	active: 44%
CC(C)Oc1ccc(CNC(=O)c2ccc(NC(=O)N3CC(C)Sc4ccccc43)cc2)cc1 (stereo unspecified)	inactive: 88%
C=CCNC(=O)Cc1c(O)c2ccccc2[nH]c1=O	inactive: 101%
Cc1cc(C)c(S(=O)(=O)NCC(c2ccco2)S(=O)(=O)c2cccs2)c(C)c1 (stereo unspecified)	active: 25%
Cc1cc(Br)cc2c1N(Cc1ccccc1OC(C)C)C(=O)C2=O	active: 22%
CCCCOc1ccc(CSCCN=C(N)N)cc1	active: 1%
Cc1cc2oc(C(=O)N(Cc3ccco3)Cc3ccccc3Cl)c(C)c2cc1C	active: 43%
OCCc1c[nH]c2ccc(OCc3ccccc3)cc12	inactive: 92%
CCOC(=O)c1ccccc1NC(=O)c1cnc(N2CCOCC2)c2ccccc12	inactive: 90%
Cc1ccc(SCC(=O)Nc2ccc3oc(-c4ccccc4F)nc3c2)cc1	active: 57%
CCc1cccc(C)c1NC(=O)c1cnn(-c2ccc(OC)cc2)c1C1CCN(C(=O)OC(C)(C)C)CC1	inactive: 85%
COc1ccc(NC(=O)c2nc(-c3ccc(C)cc3)n3c2CCCCC3)c(OC)c1	inactive: 63%
O=C1OCC2=C1C(c1ccc(F)cc1)Sc1ccccc1N2 (stereo unspecified)	inactive: 88%
CCOCCc1nn2c(=O)cc(COC(=O)c3ccc(NC(=O)C(C)(C)C)cc3)nc2s1	inactive: 83%
COc1ccc(C(=O)CCC(=O)Nc2ccc(C)c(Cl)c2)cc1	inactive: 84%
CC1CCCN(CCCNC(=O)c2cc3c(Cl)nc4ccccc4c3s2)C1 (stereo unspecified)	inactive: 125%
CC(=O)Nc1cccc(NC(=O)CCn2cnc3cc(C)c(C)cc32)c1	inactive: 62%
COc1cc(Cl)c(C)cc1Nc1nc2ccccc2n2cnnc12	inactive: 117%
